Article PMC7038631 (Alzheimer's & dementia : the journal of the Alzheimer's …, 2019)

target: full-length 2N4R WT tau oligomers (tau-GFP/RFP FRET biosensor) (Homo sapiens, UniProt P10636); test: WT tau inter-molecular FRET biosensor; conditions: 10 μM, 2 hours, HEK293 WT tau biosensor

Row | Structure (SMILES) | Decrease in FRET efficiency below the mean of all wells in NCC screen
1 | Oc1cc(Cl)ccc1Oc1ccc(Cl)cc1Cl [Triclosan] | > 5 SD
2 | CCc1oc2ccccc2c1C(=O)c1cc(Br)c(O)c(Br)c1 [Benzbromarone] | > 5 SD
3 | CCCCNc1cc(C(=O)O)cc(S(N)(=O)=O)c1Oc1ccccc1 [Bumetanide] | > 5 SD
4 | Cc1cccc(Nc2ccncc2S(=O)(=O)NC(=O)NC(C)C)c1 [Torsemide] | > 5 SD
5 | CC(C)c1ccc2c(c1)c(SC(C)(C)C)c(CC(C)(C)C(=O)O)n2Cc1ccc(Cl)cc1 [MK-886] | > 5 SD

same assay, conditions: HEK293 WT tau biosensor

Row | Structure (SMILES) | Sensitivity of tau FRET biosensor to addition of compound
6 | C=C[C@@]1(C)CC(=O)[C@]2(O)[C@@]3(C)[C@@H](O)CCC(C)(C)[C@@H]3[C@H](O)[C@H](OC(C)=O)[C@@]2(C)O1 [forskolin] | sensitive
